This note sets out measurements from PubChem BioAssay AID2202238 (Ras Initiative Chemistry Research Team, Frederick National …, 2025).

The list shows a part of the results. Further columns of the screen follow, without active or inactive calls.

The target in the test is GTPase KRas (Homo sapiens) (UniProt P01116). Briefly: Covalent labelling of cysteine mutants by fragments, read by mass spectrometry (AID 2202238). Also noted: protein at 5 µM with 500 µM competing thiol for 1.5 h. The settings on record: KRAS G12D cysteine mutants, disulfide tethering, MALDI-TOF labeling, stronger effect = higher value, fragment at 500 µM.
Chain of UniProt P01116 (P01116 whole entry, looked up, the tested form may be a part): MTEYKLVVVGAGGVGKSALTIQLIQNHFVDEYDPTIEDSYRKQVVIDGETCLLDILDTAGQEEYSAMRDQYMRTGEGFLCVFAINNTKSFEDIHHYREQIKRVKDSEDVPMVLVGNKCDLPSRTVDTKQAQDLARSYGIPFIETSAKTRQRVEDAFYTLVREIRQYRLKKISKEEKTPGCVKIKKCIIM
Where [1] appears, read: measured here: G60C mutant labeling.
Where [2] appears, read: measured here: G75C mutant labeling.
The mark [3] stands for this setting: measured here: H94C mutant labeling.
The mark [4] stands for this setting: measured here: I36C mutant labeling.
[5] abbreviates: measured here: L120C mutant labeling.
The mark [6] stands for this setting: measured here: M67C mutant labeling.
Where [7] appears, read: measured here: M72C mutant labeling.
Where [8] appears, read: measured here: N26C mutant labeling.
Setting [9] is: measured here: N86C mutant labeling.
Where [10] appears, read: measured here: P121C mutant labeling.
The mark [11] stands for this setting: measured here: S122C mutant labeling.
[12] abbreviates: measured here: S136C mutant labeling.

As to `O=C(NCCS)c1cc(-c2ccc3c(c2)OCO3)n[nH]1`, the percent labeling reads like this: under setting [1], 17.9%; under setting [2], 14.9%; under setting [3], 10.5%; under setting [4], 8.3%; under setting [5], 20.2%; under setting [6], 6.1%. Further, the percent labeling is, setting by setting: under setting [7], 59.5%; under setting [8], 28.5%; under setting [9], 13%; under setting [10], 11%; under setting [11], 11.1%; under setting [12], 15.9%.
Take `CCn1cc(C(=O)NCCS)c(C(F)(F)F)n1`: the percent labeling under setting [1] came to 58.3%; the percent labeling under setting [2] came to 18.2%; the percent labeling under setting [3] was 35%; the percent labeling under setting [4] worked out at 23.5%; the percent labeling under setting [5] came out at 41.4%; the percent labeling under setting [6] stood at 32.5%. Also, the percent labeling is 33.8% under setting [7]; 40.2% under setting [8]; 38.5% under setting [9]; 32.3% under setting [10]; 35.9% under setting [11]; 44.3% under setting [12].
As to `O=C(NCCS)c1cc(N2CCNC2=O)c(F)cc1F`, the percent labeling turned out to be 39.6% under setting [1]; 15.6% under setting [2]; 40.5% under setting [3]; 25.4% under setting [4]; 44.1% under setting [5]; 34.4% under setting [6]. Moreover, the percent labeling came to 28.3% under setting [7]; 41% under setting [8]; 32.3% under setting [9]; 31.7% under setting [10]; 32% under setting [11]; 63.2% under setting [12].
`O=C(NCCS)c1cc(Oc2cccc(Br)c2)ccn1`: the percent labeling came out at 15.2% under setting [1]; 9.9% under setting [2]; 8.6% under setting [3]; 3.6% under setting [4]; 9.3% under setting [5]; 6.1% under setting [6]. Besides, the percent labeling reads like this: under setting [7], 42.7%; under setting [8], 18.6%; under setting [9], 7.9%; under setting [10], 7.8%; under setting [11], 3.2%; under setting [12], 5.5%.
Take `CN(C)Cc1cnn2c1CN(C(=O)CCS)CC2`: the percent labeling came out at 11.9% under setting [2]; 28.1% under setting [3]; 48% under setting [4]; 26.4% under setting [5]; 38.9% under setting [6]; 19.8% under setting [7]. The percent labeling was determined as 13.9% under setting [9], 28.1% under setting [10], 29.2% under setting [11] and 50.2% under setting [12].
Turning to `O=C(CCS)NCc1ccc2cnccc2c1`, the percent labeling is, setting by setting: under setting [2], 13.9%; under setting [3], 22.7%; under setting [4], 29.6%; under setting [5], 24.5%; under setting [6], 40.2%; under setting [7], 28.6%. Moreover, the percent labeling under setting [9] was 22.1%, the percent labeling under setting [10] is 30.3%, the percent labeling under setting [11] worked out at 24.6% and the percent labeling under setting [12] came out at 40.3%.
As to `O=C(CCS)Nc1ccc(-c2cn3ccsc3n2)cc1`, the percent labeling runs as follows: under setting [2], 4.2%; under setting [3], 5.6%; under setting [4], 18%; under setting [5], 9%; under setting [6], 8.9%; under setting [7], 34.6%. Moreover, the percent labeling under setting [9] amounted to 4%, the percent labeling under setting [10] came out at 7.5%, the percent labeling under setting [11] turned out to be 6.6% and the percent labeling under setting [12] turned out to be 16.3%.
On to `O=C(CCS)NC1Cc2[nH]ncc2C(C(F)(F)F)C1` (stereo not given), for which the percent labeling stood at 16% under setting [2]; 39% under setting [3]; 37.7% under setting [4]; 33.9% under setting [5]; 38.4% under setting [6]; 30.8% under setting [7]. Moreover, the percent labeling amounted to 33.1% under setting [9], 34.9% under setting [10], 32.8% under setting [11] and 54.4% under setting [12].
Turning to `Cc1cc(=O)cc(C)n1CCCC(=O)NCCS`, the percent labeling reads like this: under setting [1], 20.9%; under setting [2], 8%; under setting [3], 25%; under setting [4], 22.6%; under setting [5], 24.2%; under setting [6], 26.9%. Besides, the percent labeling runs as follows: under setting [7], 9.7%; under setting [8], 28.8%; under setting [9], 17.3%; under setting [10], 24.3%; under setting [11], 20.2%; under setting [12], 30.9%.
Take `Cc1cc(N2CCC(N(C)C(=O)CCS)CC2)nc(C)n1`: the percent labeling was 15.1% under setting [2]; 38.2% under setting [3]; 36.2% under setting [4]; 30.5% under setting [5]; 50.3% under setting [6]; 24% under setting [7]. For the same compound, the percent labeling was 30.3% under setting [9], 30.8% under setting [10], 33.4% under setting [11] and 62% under setting [12].
On to `Cn1cc(-c2cc(C(F)(F)F)nn2CCCNC(=O)CCS)cn1`, for which the percent labeling is 12.5% under setting [2]; 30.4% under setting [3]; 39.6% under setting [4]; 20.2% under setting [5]; 25.9% under setting [6]; 23.4% under setting [7]. Besides, the percent labeling is, setting by setting: under setting [9], 18%; under setting [10], 25.8%; under setting [11], 25.9%; under setting [12], 53.2%.
In the case of `O=C(CCS)N1CCC(Cc2cccc(F)c2)CC1`, the percent labeling is 16.8% under setting [2]; 26.8% under setting [3]; 21.4% under setting [4]; 24.2% under setting [5]; 32.5% under setting [6]; 38.7% under setting [7]. For the same compound, the percent labeling reads like this: under setting [9], 21.2%; under setting [10], 27.4%; under setting [11], 19.8%; under setting [12], 50%.
For `O=C(CCS)Nc1cccnc1Oc1ccccc1`, the percent labeling under setting [2] amounted to 11.3%; the percent labeling under setting [3] worked out at 25.6%; the percent labeling under setting [4] was 18.6%; the percent labeling under setting [5] came to 24.4%; the percent labeling under setting [6] stood at 24.1%; the percent labeling under setting [7] came out at 22.8%. Further, the percent labeling came to 6.7% under setting [9], 25.1% under setting [10], 22.3% under setting [11] and 63.5% under setting [12].
`CN1CCn2nc(NC(=O)CCS)cc2C1` registered a percent labeling under setting [2] of 11.2%; a percent labeling under setting [3] of 23.7%; a percent labeling under setting [4] of 25.9%; a percent labeling under setting [5] of 33.6%; a percent labeling under setting [6] of 31.1%; a percent labeling under setting [7] of 25.3%. The percent labeling was found to be 22.6% under setting [9], 29.5% under setting [10], 33.5% under setting [11] and 43.5% under setting [12].
As for `Cc1oc2ccccc2c1CN(C)C(=O)CCS`, the percent labeling under setting [2] was 25.4%; the percent labeling under setting [3] turned out to be 38.6%; the percent labeling under setting [4] was 25.4%; the percent labeling under setting [5] turned out to be 19.5%; the percent labeling under setting [6] came to 42.6%; the percent labeling under setting [7] is 52.5%. Moreover, the percent labeling runs as follows: under setting [9], 21.4%; under setting [10], 24%; under setting [11], 20.2%; under setting [12], 56.2%.
For `O=C(NCCS)c1nccnc1C(=O)NCc1ccc(F)cc1`, the percent labeling runs as follows: under setting [1], 39.3%; under setting [2], 17.3%; under setting [3], 38.2%; under setting [4], 29.6%; under setting [5], 66.6%; under setting [6], 34.9%. The percent labeling by setting is: under setting [7], 39.9%; under setting [8], 42.1%; under setting [9], 17.8%; under setting [10], 33.8%; under setting [11], 29.2%; under setting [12], 44.3%.
For `O=C(CCS)Nc1ccccc1OCC(F)(F)F`, the percent labeling is, setting by setting: under setting [2], 15.2%; under setting [3], 40.3%; under setting [4], 25.7%; under setting [5], 33.5%; under setting [6], 30.9%; under setting [7], 32.8%. The percent labeling is, setting by setting: under setting [9], 25.3%; under setting [10], 26.8%; under setting [11], 27.6%; under setting [12], 47.6%.
`O=C(NCCS)c1[nH]nc2c1COc1ccccc1-2` registered a percent labeling under setting [1] of 9.7%; a percent labeling under setting [2] of 5.4%; a percent labeling under setting [3] of 10.5%; a percent labeling under setting [4] of 12.7%; a percent labeling under setting [5] of 18.4%; a percent labeling under setting [6] of 14.8%. The percent labeling is, setting by setting: under setting [7], 57.2%; under setting [8], 22.1%; under setting [9], 19.8%; under setting [10], 15.4%; under setting [11], 14.1%; under setting [12], 21.8%.
For `O=C(Nc1cn[nH]c1)C1CCN(C(=O)CCS)C1` (stereo not given), the percent labeling came to 12.1% under setting [2]; 24.2% under setting [3]; 35.9% under setting [4]; 29.8% under setting [5]; 35.9% under setting [6]; 14.5% under setting [7]. The percent labeling reads like this: under setting [9], 26.3%; under setting [10], 30.6%; under setting [11], 31.7%; under setting [12], 50.9%.
Consider `CS(=O)(=O)C[C@@H]1C[C@H](F)CN1C(=O)CCS`, for which the percent labeling is, setting by setting: under setting [2], 5%; under setting [3], 28.6%; under setting [4], 27.5%; under setting [5], 25.6%; under setting [6], 33.7%; under setting [7], 12.9%. The percent labeling reads like this: under setting [9], 33.8%; under setting [10], 30.2%; under setting [11], 33.5%; under setting [12], 43.1%.
Take `Cn1cc(C2(C(=O)NCCS)CCCO2)cn1` (stereo not given): the percent labeling reads like this: under setting [1], 20.4%; under setting [2], 7.2%; under setting [3], 23.1%; under setting [4], 19%; under setting [5], 24.3%; under setting [6], 22.2%. The percent labeling runs as follows: under setting [7], 11%; under setting [8], 32.6%; under setting [9], 23.1%; under setting [10], 25.5%; under setting [11], 27.4%; under setting [12], 36.6%.
Take `CC(NC(=O)NCC(=O)NCCS)c1ccco1` (stereo not given): the percent labeling is 22.7% under setting [1]; 9.4% under setting [2]; 25% under setting [3]; 18.1% under setting [4]; 35.1% under setting [5]; 21.7% under setting [6]. Moreover, the percent labeling was 14.5% under setting [7]; 29.3% under setting [8]; 19.3% under setting [9]; 26.8% under setting [10]; 24.4% under setting [11]; 31.5% under setting [12].
On to `O=C(CN1C(=O)c2ccccc2C(F)(F)C1=O)NCCS`, for which the percent labeling is, setting by setting: under setting [1], 14.5%; under setting [2], 11.5%; under setting [3], 19.8%; under setting [4], 12.7%; under setting [5], 53.3%; under setting [6], 16.5%. The compound further gave a percent labeling under setting [7] of 11.5%; a percent labeling under setting [8] of 22.7%; a percent labeling under setting [9] of 20.4%; a percent labeling under setting [10] of 23.8%; a percent labeling under setting [11] of 28.3%; a percent labeling under setting [12] of 25.2%.
For the compound `CC(NC(=O)CCS)c1noc(Cc2noc3ccccc23)n1` (stereo not given), the percent labeling was found to be 23.7% under setting [2]; 33% under setting [3]; 44.8% under setting [4]; 25.2% under setting [5]; 69% under setting [6]; 31.4% under setting [7]. Also, the percent labeling is, setting by setting: under setting [9], 26.9%; under setting [10], 31.2%; under setting [11], 26.1%; under setting [12], 45.4%.
